We go through 60 compounds from PubChem BioAssay AID602233 (National Center for Advancing Translational Sciences (NCATS), 2012).

SMILES strings stand for the structures. In all, about 380,000 compounds went through this assay and about 170 (0.045%) were called active. Calls follow the shape of the dose curve; as a rule, active = well fitted inhibition curve with a large enough effect; inconclusive = small, poorly fitted or top-dose-only effect; inactive = no such curve, though single readings can be large or run the other way. The list shows a part of the results, in another mix than the full data.
Potency is read from the fitted curve at half-maximal effect.

The assay deals with Phosphoglycerate kinase, glycosomal (Trypanosoma brucei brucei) (UniProt P07378). In words: qHTS Assay to Find Inhibitors of Phosphoglycerate Kinase. Also: nearly all actives have a fitted effect of over 60% in size. To be noted: PGK/GAPDH coupled, Kinase-Glo luminescence, 60 min; series mostly up to 57.5 µM; activity change, negative = inhibition: at the top concentration. An excerpt:
Several species of the Trypanosomatidae family of parasitic protozoans cause a spectrum of diseases throughout the tropical and subtropical world. Sleeping sickness, caused by two subspecies of Trypanosoma brucei, is endemic to areas of sub-Saharan Africa, while Chagas disease, a manifestation of Trypanosoma cruzi infection, is prevalent throughout Central and South America. In addition, many species of Leishmania are responsible for a range of cutaneous and visceral diseases, causing ulcers, destructive lesions and kalaazar, a lethal infection of the viscera. Collectively, these organisms infect 30 million people worldwide (~500 million live in endemic areas), and account for ~130,000 deaths annually. Given their debilitating and prevalent nature, trypanosomatid parasites impose a heavy medical, economic and social burden on entire populations, primarily in the developing world. The problem is further exacerbated by the fact that existing treatments have progressed little in the past 50 years, and current drugs show high toxicity and poor efficacy. […] Blood-stream stages of T. brucei are entirely dependent on glycolysis as a source of ATP, and the tricarboxylic acid cycle and oxidative phosphorylation are both repressed. Glycolysis in axenically cultured T. cruzi, representing the intracellular pathogenic stage, is also essential for these parasites. […] Previous studies have shown that the glycolytic enzyme, phosphoglycerate kinase (PGK), is a viable target for drugs to kill these parasites. […] NIH Molecular Libraries Probe Production Network [MLPCN] NIH Chemical Genomics Center [NCGC] MLPCN Grant: R03 MH093212 PI Name: Malcolm Walkinshaw, University of Edinburgh
3ul of substrate/PGK buffer (columns 1,2,5-48) are dispensed into Greiner white solid bottom 1536-well assay plates; columns 3-4 receive only TEA buffer as 0x PGK controls. Compounds are then transferred via Kalypsys pin tool equipped with 1536-pin array (10nl slotted pins, V&P Scientific, San Diego, CA). Following addition of compound, 1ul of GAPDH (100nM final concentration, all columns) is added to initiate the reaction (this upstream coupling enzyme is necessary for in-well production of PGK substrate, 1,3-bisphosphoglycerate (1,3-BPG), which is unstable and not commercially available). The plates are then incubated at room temperature for 60 minutes. Kinase-Glo Plus reagent is added (2ul) and plates incubated for 10 minutes, before being transferred to a ViewLux high-throughput CCD imager (PerkinElmer) wherein single end-point measurements of luminescence are acquired using a clear filter. All reagents are diluted in an assay buffer consisting of 100mM TEA (pH 7.6), 5mM MgCl2 and 0.01% Tween-20.
`Cc1ccc(-c2csc(N(CCCN(C)C)C(=O)c3ccco3)n2)cc1`: the “activity change, negative = inhibition” value was inactive: -0.533%.
`O=C(O)c1ccc(-c2ccc(/C=c3/sc4nc5ccccc5n4c3=O)o2)cc1Cl`: the Potency is active: 10 µM.
For the compound `CC(CCc1ccccc1)NC(=O)CNC(=S)N(Cc1cccs1)C1CCCC1` (stereo not given), the “activity change, negative = inhibition” value was inactive: 22%.
In the case of `O=C1NC(=S)S/C1=C\C=C\c1ccc([N+](=O)[O-])o1`, the Potency was active: 28.2 µM.
The same measure, in the same setting: the value for `O=C(O)c1cccc(N2C(=O)c3cc([N+](=O)[O-])cc4cc([N+](=O)[O-])cc(c34)C2=O)c1` was active: 25.1 µM.
`O=c1cc(-c2ccc(O)cc2)oc2cc(O)c([C@@H]3O[C@H](CO)[C@@H](O)[C@H](O)[C@H]3O)c(O)c12`: the “activity change, negative = inhibition” value was inactive: -5.03%.
Regarding `CCOc1ccccc1NC(=O)CSCC(=O)Nc1ccccc1`, the “activity change, negative = inhibition” value is inactive: 20.8%.
As for `COc1ccc(OC)c(NC(=O)c2nc3ccccc3s2)c1`, the “activity change, negative = inhibition” value is inactive: 12.7%.
As for `COc1cc(NC(=O)c2cnc(N)s2)cc(C(=O)Nc2cccc(C(F)(F)F)c2)c1`, the “activity change, negative = inhibition” value was inactive: 5.87%.
Regarding `C=Cc1c(C)c2cc3[nH]c(cc4nc(cc5nc(cc1[nH]2)C(C)=C5CCC(=O)O)C(CCC(=O)O)=C4C)c(C)c3C=C`, the Potency is active: 10 µM.
For `CC(C)n1c(O)c(/C=C2\C=NN=C2c2ccccc2)sc1=S`, the “activity change, negative = inhibition” value is inactive: 14%.
Still for that read-out and setting: next, `Cc1ccc(C2NC(=S)NC3=C2C(=O)CCC3)cc1` (stereo not given): inactive: 3.68%.
On to `Nc1c(C(=O)O)cnc2c(-c3ccc(Cl)cc3)cnn12`, for which the Potency is active: 31.6 µM.
`Cc1cccc(NC(=S)N(CCN2CCOCC2)Cc2ccccc2F)c1`: the “activity change, negative = inhibition” value was inactive: 10.4%.
For the compound `CC(C)(C)OC(=O)C[C@@H]1C/C=C\C[C@H](CC(=O)N[C@H](CO)Cc2ccccc2)C(=O)N[C@H](C(C)(C)C)COC1=O`, the “activity change, negative = inhibition” value was inactive: -5.39%.
On the same count and under the same terms, next, `COCc1[nH]c(=S)c(C#N)cc1C(=O)OC`: inactive: 24.3%; `COc1ccc(NC(=O)Nc2ccc(F)c(F)c2)c(OC)c1`: inactive: 3.28%.
For `O=C(O)/C=C/c1ccc([N+](=O)[O-])o1`, the Potency is active: 15.8 µM.
Take `CCOC(=O)c1c(NC(=O)CN2CCN(C)CC2)sc(C(=O)Nc2ccccc2)c1C`: the “activity change, negative = inhibition” value is inactive: 22.7%.
In the case of `CCOC(=O)CNC(=O)C12CC3CC(CC(C3)C1)C2`, the “activity change, negative = inhibition” value is inactive: 23.1%.
Same read-out and setting: the value for `C/C=C/c1cc(OC)c2c(c1)[C@H](C)[C@@H](c1ccc(O)c(OC)c1)O2` was inactive: -9.05%; that for `O=C(NCC1CCCN1S(=O)(=O)c1cccs1)c1ccc(Cl)cc1` (stereo not given) was inactive: 21.8%.
With `O=C(CCS(=O)(=O)c1ccc(Br)cc1)NCc1ccco1`, the Potency is active: 12.6 µM.
As for `COc1ccc(-c2cc3nc(C)n(N)c(=O)c3s2)cc1`, the Potency is active: 4.47 µM.
On the same count and under the same terms, next, `O=C(O)C1=CCC=CC1C(=O)O` (stereo not given): active: 12.6 µM.
On to `COC(=O)c1ccc(C)c(NC(=S)NCc2ccc(Cl)cc2)c1`, for which the “activity change, negative = inhibition” value was inactive: 27.3%.
For the compound `O=C(Nc1cc(-c2ccccc2)sc1C(=O)O)c1cccc(F)c1`, the “activity change, negative = inhibition” value is inactive: -10.6%.
`Cc1ccc(C(=O)O/N=C(\N)c2ccccn2)cc1`: the Potency was active: 25.1 µM.
For the compound `CC(/C=C/c1ccc(Cl)o1)=C\C(=O)O`, the “activity change, negative = inhibition” value was inactive: -5.96%.
For `Cc1ccc(SCc2nc3ccccc3n2CC(=O)Nc2c(C)cccc2C)cc1`, the “activity change, negative = inhibition” value was inactive: 23.4%.
With `O=C(/C=C/c1ccc(Cl)cc1)NC(=S)Nc1ccc(CN2CCOCC2)cc1`, the “activity change, negative = inhibition” value was inactive: 20.9%.
Consider `Oc1ccc(C[C@@H]2CNCCN2CCc2cccc3ccccc23)cc1`, for which the “activity change, negative = inhibition” value is inactive: -5.43%.
Turning to `Cc1ccc(C(=O)O)cc1N1C(=O)CCCC1=O`, the “activity change, negative = inhibition” value was inactive: 24.2%.
Same read-out and setting: next, `CCOC(=O)c1c(C)[nH]c(C(=O)OCC(=O)N2c3ccccc3CC2C)c1C` (stereo not given): inactive: 18.1%.
In the case of `CC1CCCCN1C(=O)Cn1cnc2cc([N+](=O)[O-])ccc2c1=O` (stereo not given), the “activity change, negative = inhibition” value is inactive: 8.4%.
Take `C=C(C)C(=O)Nc1cccc(C2=NOC3(C2)C[C@@H](C(N)=O)N(C(=O)c2cc([N+](=O)[O-])cc([N+](=O)[O-])c2C)C3)c1` (stereo not given in full): the Potency is active: 11.2 µM.
As to `N[C@@H](Cc1cc(I)c(Oc2ccc(O)c(I)c2)c(I)c1)C(=O)O`, the “activity change, negative = inhibition” value was inactive: -0.193%.
On the same count and under the same terms, the value for `NCCCC[C@@H]1NC(=O)[C@H](CCC(=O)O)NC(=O)c2cc([N+](=O)[O-])cc(I)c2OCC[C@@H](C(N)=O)NC1=O` was inactive: -17.3%.
Consider `O=C(O)c1ccccc1NS(=O)(=O)c1ccc(N/N=C/c2cccc(O)c2O)c([N+](=O)[O-])c1`, for which the Potency is active: 8.91 µM.
Still for that read-out and setting: the value for `COc1ccc(-c2nn(-c3ccccc3)cc2/C=C2/SC(=S)N(CCC(=O)O)C2=O)cc1` was active: 20 µM; that for `O=c1oc2c(O)c(O)cc3c(=O)oc4c(O)c(O)cc1c4c23` was active: 0.891 µM.
For `CC1(C)Cc2c(sc3ncn(N)c(=N)c23)CO1`, the “activity change, negative = inhibition” value was inactive: 25.6%.
Same read-out and setting: the value for `COc1cc(C(=S)N2CCCC2)ccc1O` was inactive: 18.4%; that for `CCC(=O)N1CCN(c2ccc(NC(=O)c3ccc([N+](=O)[O-])o3)cc2Cl)CC1` was inactive: 35.2%; that for `Cc1c(C(=O)NCc2ccccn2)oc2ccc(S(=O)(=O)N3CCC4(CC3)OCCO4)cc12` was inactive: 33.1%.
As for `O=C1Nc2ccc(Br)cc2/C1=N\N=C\C1=C(N2CCOCC2)C(=C/c2ccccc2)/CC1`, the “activity change, negative = inhibition” value is inactive: -11.1%.
Take `c1csc(Cc2nc3ccccc3[nH]2)c1`: the “activity change, negative = inhibition” value is inactive: 20.8%.
On to `CCOc1ccc(/C=C2\SC(=S)N(CCC(=O)Nc3ccc(C(=O)O)cc3)C2=O)cc1`, for which the “activity change, negative = inhibition” value is inactive: -23.8%.
The same measure, in the same setting: next, `CC(C)(C)OC(=O)C[C@H]1C/C=C\C[C@H](CC(=O)N[C@H](CO)Cc2ccccc2)C(=O)N[C@H](C(C)(C)C)COC1=O`: inactive: -9.59%.
Consider `O=C(CN1C(=O)S/C(=C/C=C/c2ccccc2)C1=O)Nc1ccc(C(=O)O)cc1`, for which the call was inactive.
Take `O=C(CN1C(=O)/C(=C/c2ccco2)SC1=S)Nc1ccc(C(=O)O)c(O)c1`: the Potency was active: 28.2 µM.
As to `Cc1ccc(C(=O)CCC(=O)Nc2cccc(C(F)(F)F)c2)cc1C`, the “activity change, negative = inhibition” value was inactive: 19.7%.
The same measure, in the same setting: the value for `COC(=O)C1=CNC=C(C(=O)OC)C1c1cccc(OC)c1` was inactive: 21.9%; that for `CC(C)(C)OC(=O)C[C@H]1C/C=C\C[C@@H](CC(=O)NCCO)C(=O)N2CCC[C@H]2COC1=O` was inactive: -5.66%.
As to `O=C(CCNC(=O)c1ccccc1)Nc1cccnc1`, the “activity change, negative = inhibition” value is inactive: 34.5%.
On the same count and under the same terms, next, `O=C(CCN1C(=O)/C(=C\c2ccco2)SC1=S)Nc1ccc(C(=O)O)c(O)c1`: inactive: -20.7%.
Take `CC(=O)c1ccc(NC(=O)CN2C(=O)CCc3cc(S(=O)(=O)N4CCC(C)CC4)ccc32)cc1`: the Potency was active: 25.1 µM.
On to `CCOC(=O)c1c(S(=O)(=O)NCC(=O)Nc2cc(C)ccc2OC)c(C)n(C)c1C`, for which the “activity change, negative = inhibition” value is inactive: -3.62%.
Regarding `O=C1C2C3C=CC(c4ccccc4)(C2C(=O)N1c1cccc(Cl)c1)C1C(=O)N(c2cccc(Cl)c2)C(=O)C31` (stereo not given), the “activity change, negative = inhibition” value was inactive: 34.5%.
On to `CCCCOc1ccc(N2C(=O)C(C)CNC2=S)cc1` (stereo not given), for which the “activity change, negative = inhibition” value was inactive: 18.3%.
